# Measurements published in PubChem BioAssay AID485344 (National Center for Advancing Translational Sciences (NCATS), 2010).
# About 6,900 (2%) of roughly 340,000 compounds were called active. No stated cut-off is given here; in the data, active means inhibition above about 30%; inactive means below that, where a call was filed. The entries are a selection whose mix differs from that of the whole data set. Entries without a call were filed so in the source.
# Target: D(2) dopamine receptor (Homo sapiens) (UniProt P14416)
# UniProt P14416, sequence (P14416 whole entry, looked up): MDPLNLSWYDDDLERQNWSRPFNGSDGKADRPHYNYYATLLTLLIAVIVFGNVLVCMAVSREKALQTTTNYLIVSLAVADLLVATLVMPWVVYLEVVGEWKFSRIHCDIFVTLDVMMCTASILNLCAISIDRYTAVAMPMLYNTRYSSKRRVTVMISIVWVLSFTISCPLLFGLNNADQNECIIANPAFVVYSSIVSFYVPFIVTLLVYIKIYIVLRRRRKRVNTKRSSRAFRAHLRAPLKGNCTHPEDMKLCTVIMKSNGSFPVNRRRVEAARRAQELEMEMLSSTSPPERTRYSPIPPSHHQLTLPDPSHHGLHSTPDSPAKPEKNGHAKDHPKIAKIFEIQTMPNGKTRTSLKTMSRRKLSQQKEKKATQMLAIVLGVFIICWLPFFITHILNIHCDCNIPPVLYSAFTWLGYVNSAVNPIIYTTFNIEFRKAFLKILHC
# Test: HTS Assay for Allosteric Antagonists of the Human D2 Dopamine Receptor: Primary Screen for Antagonists; further: 0% is about no effect
# Conditions: HEK293 TREx D2 cells, calcium flux, dopamine EC80; at 10 µM; stronger effect = higher value
# Procedure, shortened: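 Dopamine at EC80 is the agonist stimulus; test compounds precede it by 180 s. Calcium flux read kinetically in a force-coupled, inducible HEK293 T-REx D2 cell line.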
row,SMILES,inhibition
1,CC(C)Oc1ccc(CNC(=O)C2CCCCN2S(=O)(=O)c2ccc(F)cc2)cc1 (configuration not stated),-4.33%
2,CCC(C)NC(=O)Cc1ccc(NC(=O)N2CCCCc3ccccc32)cc1 (configuration not stated),2.53%
3,Cc1cc(C)cc(OCc2cc(=O)n3c4c(sc3n2)CCCC4)c1,13.4%
4,Cc1ccc(-n2c(=O)c3oc4ccccc4c3n(CC(=O)Nc3ccc(F)c(Cl)c3)c2=O)cc1C,-12.2%
5,N#Cc1ccccc1NC(=O)C(=O)NCC(c1ccc2c(c1)OCO2)N1CCOCC1 (configuration not stated),-8.33%
6,O=C(CS(=O)(=O)c1cccc2nsnc12)Nc1ccc(F)cc1F,-4.99%
7,CCc1cccc(C)c1NC(=O)C1CCN(S(=O)(=O)c2cccc3nonc23)CC1,14.8%
8,COc1ccc(C(=O)Nc2c(C(=O)c3ccc(F)cc3)oc3ccccc23)cc1,-0.795%
9,O=C1CC(c2ccc(Cl)cc2)c2cc3c(cc2N1)OCCO3 (configuration not stated),6.19%
10,CCCCCn1c(=O)[nH]c2cc(C(=O)N3CCN(c4cccc(OC)c4)CC3)ccc2c1=O,2.94%
11,COc1ccc(-c2nc3c(c(SCC(=O)Nc4ccccc4OC)n2)Cc2cccc(C)c2O3)cc1,1.62%
12,CCCCC(=O)Nc1c(C(=O)N2CCN(c3ccccc3)CC2)oc2ccccc12,-5.67%
13,CCOc1ccc(CNC(=O)c2cccn2-c2nnc(N3CCCCC3)s2)cc1OC,1.76%
14,CCOCCCNC(=O)c1cc(=O)[nH]c2ccc(S(=O)(=O)N3CCCC3)cc12,0.499%
15,CCc1ccccc1NC(=O)C(CC)Oc1ccccc1-c1nnc(-c2ccccc2)o1 (configuration not stated),12.9%
16,O=C(Nc1ccc(C(=O)OCc2cc(=O)n3nc(C4CC4)sc3n2)cc1)c1cccc(Cl)c1,4.33%
17,CCOC(=O)CCCN1C(=O)CCn2nc(-c3cn(C)c4ccccc34)cc21,-0.509%
18,CCOc1ccc(CCNC(=O)c2cccc(-n3c(C)nc4cccnc43)c2C)cc1,-3.57%
19,CCCCN(Cc1ccccc1)S(=O)(=O)c1cc(Br)cc2c1N(C(C)=O)CC2,-21.4%
20,CCOc1ccc(-n2ccnc2SCC(=O)Nc2ccc3c(c2)OCO3)cc1,-0.268%
21,O=C(CSc1nc2ccccc2nc1Cc1ccccc1)Nc1ccccc1C(F)(F)F,-18.4%
22,COc1ccc(S(=O)(=O)NCCc2sc3nc(-c4ccc(C)cc4)nn3c2C)cc1F,-23.7%
23,COc1cccc(NC(=O)c2c(N3CCCC3=O)c3cc(C)ccc3n2C)c1,-7.9%
24,O=C(NCCS(=O)(=O)N1CCN(c2ccccc2F)CC1)C1CC(=O)N(c2ccccc2)C1 (configuration not stated),4.11%
25,CCOc1ccc(CNC(=O)c2cnc3sc(N(CC)CC)nn3c2=O)cc1,-2.76%

row,SMILES,inhibition
1,Cc1ccc(NC(=O)C2CCCN2S(=O)(=O)c2ccc3c(c2)C(C)(C)C(=O)N3C)cc1 (configuration not stated),7.15%
2,COc1ccc(-c2cc(C)no2)cc1S(=O)(=O)NC1CCC(C)CC1 (configuration not stated),2.72%
3,Cn1cnc(S(=O)(=O)N2CCCC(C(=O)NCc3ccccc3)C2)c1 (configuration not stated),-28.6%
4,CCOc1ccc(NC(=O)c2cc(C)nc3c2c(C)nn3-c2cccc(F)c2)cc1,2.92%
5,CC1(C(=O)NC2CCCCC2)Cc2ccccc2C(=O)N1Cc1ccc(F)cc1 (configuration not stated),9.75%
6,Cc1ccc(S(=O)(=O)c2nc(-c3ccco3)oc2SCc2ccc(F)cc2)cc1,13.1%
7,COc1ccccc1CNS(=O)(=O)c1ccc2c(c1)CC(C)N2C(=O)C1CCC1 (configuration not stated),5.6%
8,Cc1c(-c2ccccc2)nc2ccccc2c1C(=O)OCC(=O)Nc1ncc(C(F)(F)F)cc1Cl,active: 30%
9,Cc1c(C(=O)NCCCN2CCCC2=O)oc2ccc(S(=O)(=O)N3CCOCC3)cc12,active: 44.3%
10,COCCOCC(O)CN1CCN(c2ccccc2)CC1 (configuration not stated),active: 59%
11,COc1ccc(N2CCN(C(=O)C(C)n3c(=O)cc(C(F)(F)F)c4c(C)nn(C)c43)CC2)cc1 (configuration not stated),1.75%
12,COc1ccc(OC)c(NC(=O)Cn2c(=O)n(Cc3nc(C)no3)c(=O)c3ccccc32)c1,0.232%
13,COc1ccc(Cl)cc1NC(=O)NCCc1c(C)nn(C)c1C,1.02%
14,O=C(CSC1=Nc2ccccc2N=C(c2ccc(F)cc2)C1)Nc1ccc(Cl)cc1,15.2%
15,CC(=O)Nc1ccc(NC(=O)c2cc(-c3cccs3)on2)cc1,-2.63%
16,CCc1cccc(C)c1NC(=O)c1ccc2c(c1)CCN2S(=O)(=O)CC,4.73%
17,Cc1ccc(Sc2c(C)nn(C(=O)c3ccc(Br)cc3)c2C)cc1,-8.33%
18,COc1ccc(Nc2ncnc3onc(C)c23)c(OC)c1,0.891%
19,COc1ccccc1NC(=O)CSc1oc(-c2ccccc2)nc1S(=O)(=O)c1ccccc1,-0.302%
20,COc1ccc2c(c1)c1c(c(=O)n(-c3cccc(C)c3)c(=O)n1CC(=O)NCC1CCCO1)n2C (configuration not stated),2.76%
21,COc1cc(-c2oc3ccc(C)cc3c(=O)c2O)cc(OC)c1OC,4.57%
22,Cc1cc2c(n1-c1ccc(C(=O)NCc3ccc(OC(C)C)cc3)cc1)CCCC2,-7.07%
23,Cc1ccc(NC(=S)NC2CCN(Cc3ccccc3)CC2)c(C)c1,active: 46.9%
24,Cc1cccc(Cc2c(C)nc3nc(SCc4ccccc4F)nn3c2C)c1,-0.749%
25,CCOc1ccccc1C(=O)Nc1ccc(S(=O)(=O)Nc2ncccn2)cc1,-17.2%

row,SMILES,inhibition
1,Cc1ccc(C(=S)N2CCN(Cc3ccccc3)CC2)cc1,active: 65.1%
2,CCN(CC)S(=O)(=O)c1cc(NC(=O)c2cc([N+](=O)[O-])ccc2N2CCOCC2)ccc1C,active: 37.3%
3,CCN1C(=O)c2ccccc2S(=O)c2ccc(C(=O)N3CCN(c4ccccc4OC)CC3)cc21 (configuration not stated),3.25%
4,COc1cccc(CNC(=O)CCCCCn2c(=O)[nH]c3cc(OC)c(OC)cc3c2=O)c1,0.104%
5,CN(Cc1ccccc1)C(=O)c1cc(-c2cccc(Cl)c2)on1,14%
6,CS(=O)(=O)N(CCc1ccccc1)CC(=O)N1CCN(Cc2ccc3c(c2)OCO3)CC1,active: 43.5%
7,CCOC(=O)c1c(C)[nH]c(C)c1S(=O)(=O)NCC(=O)NCc1ccccc1Cl,-1.77%
8,COc1cc(C(CC(=O)Nc2cc(C)ccn2)N2Cc3ccccc3C2=O)cc(OC)c1OC (configuration not stated),1.23%
9,COCCSc1ccccc1C(=O)N1CCN(c2ccccc2OC)CC1,active: 38.1%
10,Cc1cc2c(n1-c1ccc(C(=O)NCCc3ccccc3)cc1)CCC(C)C2 (configuration not stated),10.5%
11,CCCN(Cc1cccs1)C(=O)Nc1ccc(Br)cc1F,11.8%
12,COc1ccc2[nH]c(=O)c(CN(C(=O)c3cccc(Cl)c3)c3cccc(C)c3)cc2c1,1.55%
13,CCN1CCN(c2ncc3c(n2)CCN(Cc2ccc(OC)c(OC)c2)C3)CC1,6.22%
14,CC(C)c1cc(-c2nc(-c3ccc(Br)cc3)no2)n[nH]1,2.67%
15,COc1ccc2cc(CNc3ccc(C)cc3)c(=O)n(CC(=O)Nc3cccc(C(F)(F)F)c3)c2c1,4.12%
16,CC(=O)c1c(N2CCN(Cc3ccccc3)CC2)[nH]c(-c2ccccc2)nc1=S,active: 72.9%
17,C[C@H](NC(=O)OCc1ccccc1)c1nnc([C@H](C)NC(=O)OCc2ccccc2)o1,active: 38.3%
18,Cc1ccc(-c2nnc(Nc3ccc(O)cc3)c3ccccc23)cc1S(=O)(=O)N1CCCCC1,-5.73%
19,O=c1c2cccnc2n(Cc2cccc(F)c2)c(=O)n1Cc1ccccc1Cl,-3.74%
20,Cc1ccc(S(=O)(=O)c2cn(CC(=O)Nc3ccc4c(c3)OCO4)c3ccccc3c2=O)cc1C,-2.11%
21,CC(C)(C)C(=O)Nc1ccc2nc(SCC(=O)N3CCc4ccccc43)sc2c1,12.3%
22,COc1ccccc1-n1c(=O)c2c3c(sc2n(Cc2ccccc2F)c1=O)CN(C(C)=O)CC3,-15.7%
23,O=C(NCCS(=O)(=O)N1CCN(c2ccc(F)cc2)CC1)C1CC(=O)N(c2ccccc2)C1 (configuration not stated),-17.1%
24,CCOc1ccc(NC(=O)c2cc3cc4cc(OC)ccc4nc3s2)cc1,-0.408%
25,Cc1cccc(NS(=O)(=O)c2ccc3c(c2)OCC(C(=O)N2CCCC2)O3)c1C (configuration not stated),12.8%

row,SMILES,inhibition
1,CCc1nn(CCCC(=O)NCc2cc(Br)ccc2OC)c(=O)c2cc3occc3n12,3.89%
2,CCc1cccc(C)c1NC(=O)Cn1cc2c(n1)CCCCC2,3.65%
3,COc1ccccc1NC(=O)Cn1nnc(C(=O)Nc2ccccc2Br)c1N,-2.77%
4,Cc1ccc(CNC(=O)c2cc(=O)c3cc(C)cc(C)c3o2)cc1,18%
5,COc1cc(CCC(C)NCc2ccccc2)ccc1O (configuration not stated),active: 74.9%
6,CC(=O)N1CCN(c2csc3ccc(Br)cc3c2=O)CC1,-11.6%
7,COC(=O)c1ccccc1NC(=O)c1cnc2sc(N3CCOCC3)nn2c1=O,9.66%
8,CCC(C)NC(=O)CSc1nc(-c2ccc(F)cc2)cc(C(F)(F)F)n1 (configuration not stated),6.95%
9,Cc1ccc(NC(=O)N2CCN(C)c3ncccc32)cc1C,-10.2%
10,O=C(CN1C(=O)COc2ccc(S(=O)(=O)N3CCCCCC3)cc21)NCCc1ccccc1,11%
11,Cc1ccc(CN2C(=O)N(c3ccccc3)C(=O)C2CC(=O)Nc2ccccc2)cc1 (configuration not stated),-9.8%
12,COc1cc(OC)c(N(C)C(=O)Cn2ncc3c(=O)oc4ccccc4c32)cc1Cl,-6.31%
13,COC(=O)c1ccccc1NC(=O)N1CCC(n2c(C)nc3cccnc32)CC1,13.8%
14,COCCNC(=O)c1c(NC(=O)c2cc(=O)c3cc(Cl)ccc3o2)sc2c1CCCC2,6.77%
15,CC(=O)c1ccc(C(=O)N(Cc2cccnc2)c2nc3c(C)c(C)ccc3s2)cc1,5.09%
16,CCOC(=O)N1CCN(C(=O)c2ccc3c(c2)N(Cc2cccc(Cl)c2)C(=O)c2ccccc2S3=O)CC1 (configuration not stated),-9.73%
17,Cc1ccc(-c2nc3ccccn3c2Nc2ccc3c(c2)OCCO3)o1,2.77%
18,O=C1CN(C(=O)COc2ccc(Cl)cc2)C(c2ccc(F)cc2)c2cc(Cl)ccc2N1 (configuration not stated),-10.3%
19,O=C(Nc1ccc(Br)cc1)C1CCN(c2ncccn2)CC1,-15%
20,COCCOC(=O)c1c(C)oc2ccc(OCc3ccccc3)cc12,active: 64.5%
21,CCOc1ccc(NC(=O)C2CCN(S(=O)(=O)c3c(C)noc3/C=C/c3ccco3)CC2)cc1,9.83%
22,c1ccc(N2CCN(Cc3cnc(N4CCOCC4)s3)CC2)cc1,active: 38.3%
